Experimental data as given in the supplement of paper PMC3334620.
Whole data set: some 33,000 sequences, median “E-score (-0.5 to 0.5)” near -0.032, cut for the highest 2% near 0.36. This is one part of the list.

These sequences were tested against T1, Sko1 (UniProt Q02100) (assay: PBM E-score (8-mer binding enrichment) (E-score (-0.5 to 0.5)); higher = stronger / more preferred TF binding; most listed sequences are background and not binding sites). Conditions: protein concentration: 200 nM; construct: GST-full length.
T1 sequence: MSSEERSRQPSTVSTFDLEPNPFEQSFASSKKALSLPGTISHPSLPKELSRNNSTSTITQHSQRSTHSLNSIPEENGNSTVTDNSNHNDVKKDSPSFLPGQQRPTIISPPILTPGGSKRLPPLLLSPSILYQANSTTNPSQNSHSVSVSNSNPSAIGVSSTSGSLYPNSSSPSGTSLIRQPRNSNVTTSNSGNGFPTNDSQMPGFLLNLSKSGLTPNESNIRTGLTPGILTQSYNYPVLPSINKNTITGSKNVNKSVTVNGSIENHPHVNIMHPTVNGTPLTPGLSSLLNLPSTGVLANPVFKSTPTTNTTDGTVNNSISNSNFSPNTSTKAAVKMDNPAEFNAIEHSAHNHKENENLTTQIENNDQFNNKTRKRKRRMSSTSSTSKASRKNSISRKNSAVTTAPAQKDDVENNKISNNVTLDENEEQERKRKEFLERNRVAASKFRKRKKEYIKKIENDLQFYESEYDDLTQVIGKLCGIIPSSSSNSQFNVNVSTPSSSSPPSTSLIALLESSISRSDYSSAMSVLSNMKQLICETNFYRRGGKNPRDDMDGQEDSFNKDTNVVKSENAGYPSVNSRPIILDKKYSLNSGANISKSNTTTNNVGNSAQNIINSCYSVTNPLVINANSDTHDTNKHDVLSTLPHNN
Summary of the method: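 Bound GST-tagged yeast transcription factors, applied at about 100-200 nM to double-stranded universal all-10-mer Agilent arrays, were detected with fluorescent anti-GST. Scans were normalised with masliner. A modified Wilcoxon-Mann-Whitney statistic, the E-score, was assigned to each ungapped eight-base word pooled with its reverse complement by the Universal PBM Analysis Suite.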

Sequence | PBM E-score
AGTCGTCG | -0.148
CATGCCTC | 0.0373
CATGCTCA | -0.0974
AGCCTTCG | -0.283
CTAGCGGC | -0.388
GTAGCTAA | -0.0537
CAGGCAGA | -0.0717
AGAGGGTG | -0.215
GCCGCGTA | 0.145
AGTAGGCC | -0.203
AACTGGTC | -0.112
CGAGGATA | -0.103
GAAGCGAC | -0.077
AAGCCTAT | 0.00304
ATCGTGGA | -0.0211
GCCTCAAA | -0.223
AACCAAGG | -0.015
AAAGGCGT | -0.11
GCTAAACA | 0.0426
CTATGCCA | -0.215
CTGCAGGC | -0.174
CAACCACG | 0.232
GGTTATAA | 0.0904
CCTTACCC | -0.149
CATACGAG | -0.00346

Sequence | PBM E-score
AATACCCT | -0.118
CTTCTATA | 0.0482
GCGCAGGA | -0.131
AAAGCTTG | -0.00387
GGGTTCTA | -0.289
AGTGAGGA | -0.191
AAAAGCCC | -0.199
AAGGTTGT | 0.00278
CCCGCACA | -0.0587
TTAACTAA | 0.239
GCAAAGTA | 0.035
TCCCCACA | 0.0503
AACCTGGG | -0.29
AAATTCTA | 0.0784
ACGGATCA | 0.0945
CCGGTATA | -0.131
GCTTTGCC | -0.244
AGCGGCGA | -0.244
AGTCAATA | 0.0536
GCTTCCAA | 0.00837
CCCACCCG | -0.0998
AACTTCGT | 0.129
GTTTTTGA | 0.194
ATGTACTC | -0.0812
ACGGCATC | 0.0446

Sequence | PBM E-score
ACCCAATG | -0.0468
GTTGTGCA | -0.00784
AAGACGGT | -0.154
CCGGTGGC | -0.342
GCCTTCTA | -0.156
AGCCTCAA | -0.238
ACCTTATC | -0.00654
ACACCTGA | 0.0591
ACAGGCAG | -0.13
AAGGAATC | -0.278
GTTAGCGA | 0.21
ATGCTTCC | -0.0957
ATTACCCG | -0.0393
CTCCGCTC | -0.0649
ACACGGCA | -0.0716
TCAGCTCA | 0.0362
CTGTTCAC | -0.13
CATCAATG | 0.108
CACTGACA | 0.0149
AAAGTCTG | -0.0734
CTCCGGTA | -0.0659
GCAGGGGC | -0.109
GTCTGATA | -0.114
AGAAACCG | -0.141
CGCTCTAC | 0.0256

Sequence | PBM E-score
TATTGGAA | 0.214
ACTTTACA | 0.158
ATTGCCGG | -0.274
CAGCGCAC | -0.246
AGGCTCGG | -0.362
CCCGACTA | -0.368
CGGATAAA | 0.148
TCGGGAAA | 0.0127
GTCTAATA | 0.277
TATGATAA | 0.247
AAACGCAT | 0.0801
CCATCCGA | -0.104
ATTTGACA | 0.198
ATAATCAA | 0.0594
GCAATTTA | 0.117
AGAGTGCC | -0.231
CGGCGGAG | -0.304
CTAAGGGC | -0.249
AAAGTAGA | 0.0277
GCACTGGA | -0.0985
GATCGCTA | -0.056
CCTGCTCG | -0.328
CTCGACGA | -0.0837
GCCAATCC | -0.138
CTCAGGGA | -0.416

Sequence | PBM E-score
ATGCGGCA | -0.0793
ACGTATAG | 0.437
GACTAAAA | 0.0454
AACTTACC | -0.0258
CTAACAAC | -0.0133
GTTTCCAA | -0.0577
ATGCGCAG | -0.0369
ATAGGATA | -0.0824
AGTCCCTA | -0.165
GGGTCAAA | 0.0542
ACGGCGGG | -0.167
CGGGGCGC | -0.313
GGAGCAAA | -0.153
TTCAGAAA | -0.0753
CAAGCCTC | -0.212
CCAAACCC | -0.0346
AACAGGCC | -0.333
ATGTAATG | 0.321
TAATTGGA | 0.0719
AAGTGATA | 0.06
AAGTTTCG | 0.0656
ACCTCAAT | 0.219
CGAATATA | 0.128
CGATCAGA | 0.0873
AGTACTTG | 0.16

Sequence | PBM E-score
CGGGCACA | -0.295
CTCCAGGA | -0.0718
GCCGATAA | -0.0997
CACGGAGA | -0.193
AACATGTT | 0.0183
TAAAATCA | 0.118
CGACCGCC | -0.152
GACACACC | -0.0226
TGAGCCAA | -0.0877
CTATGCAC | -0.0508
CAACTGGA | -0.157
AAGAATTG | 0.114
GATGCGCC | -0.104
TAGCCATA | 0.0536
ATGGGAGC | -0.176
ACGCTAGC | -0.0402
AGAATTAC | 0.283
CTCACACA | -0.11
GAATGTCA | 0.184
CCAGACCA | -0.162
GCTAGAAA | 0.0276
TGACACAA | 0.194
AATGTGTC | 0.0196
CCATCCCA | -0.232
CCCTTAGA | -0.101

Sequence | PBM E-score
CGTTCTCA | 0.112
GGTTCGAC | -0.0891
CAACCATC | -0.213
ACTACGCA | 0.367
CAGAGAGC | -0.306
AACGGGCC | -0.0873
AGTGCATA | 0.0433
ATCTCCCC | -0.331
ACAAATTA | 0.287
ATGGGTCA | -0.0258
GATCAAGA | 0.0938
CACCGAGG | -0.271
AACGCGGG | -0.087
AATGAAAC | 0.0613
CATCAGCC | -0.0761
AAACTCGG | 0.0107
ACCTCCTG | -0.198
ACCCTGGG | -0.146
AGATATTA | 0.00673
CCAGCCAG | -0.335
GCGATCCA | -0.0815
AGACGCCA | 0.0116
TACCTTCA | 0.0673
CCGCTTAA | 0.0447
ACCTGGGG | -0.209

Sequence | PBM E-score
CGACGCCC | -0.0842
CATGATCA | 0.249
CCAGAGGC | -0.246
CTGCATTA | -0.0806
TAAGAGTA | 0.0518
GGACTGGA | -0.254
AGGCTATA | -0.162
AAGTGTCT | -0.135
ATTTACAG | -0.0535
AAAGAGTC | -0.188
GCACCGCA | -0.113
ACAGATTC | 0.0342
TGTCGACA | 0.0772
AGGTGAAG | -0.112
GTACATAA | 0.306
ACCGCCAC | -0.0653
ACTGCAGC | -0.191
ATCGGCAA | -0.0288
AAGGAATT | 0.0587
GCCGCCCC | -0.28
CTGCTGCC | -0.157
GGTAGACA | -0.103
ATCTCTTA | 0.109
ATGTGCAC | -0.0142
AGAGTCCC | -0.247

Sequence | PBM E-score
AAGCAGCT | -0.163
ACGAACGG | 0.0822
AATAGAGA | 0.0523
GCATAGAA | -0.113
CATCCCCA | -0.0522
CAAGCGAG | 0.0141
CATTAATA | 0.0996
GTGGAGTA | 0.0664
ACGTCTCG | 0.24
AACCGTGG | -0.188
ACCCAGTA | -0.0464
CCGCGCGC | -0.0942
GGTATCAA | -0.00387
AGCACGAG | -0.0498
AGGGATCC | -0.468
ATGTCGCG | 0.186
CGAGAACG | 0.0906
GCTGACCA | -0.222
GCGAGACC | -0.071
